PubChem BioAssay AID743279 (National Center for Advancing Translational Sciences (NCATS), 2014)
Where “and” joins values, the source holds several entries; their conditions need not be identical. Equal entries are not always repeated. In all, about 360,000 compounds went through this assay and about 17,000 (4.7%) were called active. This list was built around the results that the source calls inconclusive (neither active nor inactive); the mix of calls is not that of the screen. Rule as the data show it: active = activity change below about -50%; inconclusive = mostly about -30% to -49%; inactive = weaker than that.

assay: qHTS for Inhibitors of Inflammasome Signaling: IL-1-beta AlphaLISA Primary Screen; conditions: THP-1 LPS/ATP IL-1B secretion, 16 h; at 57.5 µM, stronger effect = lower value
How it was run: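 Secreted IL-1B measured by AlphaLISA bead assay after 16 h compound exposure of THP-1 cells; compounds (final up to 57.5 uM) added 1 h before LPS (250 ng/mL) and ATP (1.25 mM) stimulation; lower signal means less secretion.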
% is scaled to controls: 0 for no effect and ±100 for the full control effect.

Activity change, inconclusive:
COCCNC(=S)Nc1ccc2nc(N3CCCC3)cc(C)c2c1 -37.9%
O=C(Nc1ccc(F)cc1)C(c1cc2ccccc2o1)N1CCN(C(=O)c2ccco2)CC1 (stereo unspecified) -30.8%
C=CCn1c(SCC(=O)N(CC)C2CCS(=O)(=O)C2)nc2sc3c(c2c1=O)CCC3 (stereo unspecified) -31.5%
O=C(Nc1ccc(Br)cc1)N1CCCCCC1 -40.8%
Cc1ccc(O)c(NC(=O)c2cc(-c3ccc(F)cc3)on2)c1 -35.7%
O=C(C[n+]1ccc(CCSc2ccc(F)cc2)cc1)c1ccccc1 -39.8%
Cc1ccc(CSc2nnc(CCCCCNC(=O)OC(C)(C)C)o2)cc1 -36.6%
CCn1c2ccccc2c2cc(/C(C)=N/O)ccc21 -48.6%
CN1CCN(c2ccc(S(=O)(=O)N3CCCCC3)cc2NC(=O)COc2ccc(F)cc2)CC1 -39.8%
N=C1C(c2nc(-c3ccc(Cl)cc3)cs2)=C(O)CN1CCCN1CCOCC1 -46.4%
CCOC(=O)CC(NC(=O)c1cc2cccc(OC)c2oc1=O)c1cccc([N+](=O)[O-])c1 (stereo unspecified) -33.1%
O=C(NCCCCc1ccccc1)c1ccccc1F -35.6%
Cc1ccccc1NC(=O)NCCCN1CCN(c2ccccc2)CC1 -37.6%
Cc1ccc(/C=N\NC(=O)Cc2cccn2C)o1 -44.6%
O=C(C[C@H]1C(=O)N(C2CCCCC2)C[C@@H]1Cc1ccccc1)Nc1ccccc1 -34.6%
CC(=O)n1cc([C@@H]2C=C(C(=O)N3CCN(Cc4ccc5c(c4)OCO5)CC3)O[C@H](OCc3ccc(CO)cc3)C2)c2ccccc21 -31.1%
Cc1ccc2nc(-c3ccccc3)cc(C(=O)N(C)CC(=O)Nc3ccccc3Br)c2c1 -33.7%
O=C(NCc1ccco1)C(c1ccccc1)N(C(=O)Cc1cccs1)c1ccccc1F (stereo unspecified) -37.2%
OCC1(Cc2ccc(Cl)cc2)CCN(Cc2ccc(F)c(F)c2)CC1 -30.7%
CCOc1ccccc1NC(=O)c1cc(-c2ccccn2)nc2ccccc12 -30.9%
Oc1ccc(C[C@H]2CN([C@@H](Cc3ccc(O)cc3)CN3CCC[C@@H]3CN3C(=S)NC[C@@H]3Cc3ccccc3)C(=S)N2CCc2ccccc2)cc1 -34%
CCOc1ccccc1NC(=O)C1=C(C)NC(=O)NC1c1cccs1 (stereo unspecified) -30.5%
O=Nc1c(O)n(Cc2c(Cl)cccc2Cl)c2ccccc12 -45.6%
CCn1cc(C2=NC(CC(C)C)CO2)c2ccccc21 (stereo unspecified) -36.3%
COc1cc(/C=C2\SC(=S)N(NC(=O)c3ccccc3OC)C2=O)ccc1O -35%
CCOc1ccccc1NC(=S)Nc1ccc2cn[nH]c2c1 -35.4%
CCN(C(=S)NC(=O)CCc1ccccc1)c1ccccc1 -30.9%
CCC(=O)N1CCc2cc(S(=O)(=O)NCCN3CCC(C)CC3)ccc21 -48.5%
Cc1[nH][nH]c(=O)c1C(c1cc2c(cc1Br)OCO2)c1c(C)[nH][nH]c1=O -47.1%
CCN1CCN(c2nc(-c3cccs3)nc3ccccc23)CC1 -36.3%
O=C(N[C@@H](Cc1ccccc1)C(=O)N1CCC2(CC1)NCCc1[nH]cnc12)c1cccc(Br)c1 -42.4%
CCOC(=O)C1CCN(c2ncnc3c2[nH]c2cccc(OC)c23)CC1 -49.7%
Cc1cc(C(=O)OCC(=O)N2C(C)CCCC2C)c2ccccc2n1 (stereo unspecified) -49.5%
COc1ccc(NC(=O)Nc2cccc(C(F)(F)F)c2)cn1 -49.6%
Cc1cc(C)cc(NC(=O)c2ccc(CNc3c(N4CCCC4)c(=O)c3=O)cc2)c1 -35.5%
COc1ccc(NC(=S)N(CCN(C)C)C(C)c2ccncc2)cc1Cl (stereo unspecified) -45%
CC1(C)Cc2c(c(N3CCOCC3)nc3sc(-c4ccc(C(=O)O)o4)c(N)c23)CO1 -30.3%
CCOC(=O)c1cnc2ccc(OCC)cc2c1NCc1ccccc1 -39.7%
COc1ccc(S(=O)(=O)Nc2ccc(Cc3ccncc3)cc2)cc1OC -45.1%
C=CCn1c(-c2ccc(F)cc2)n[nH]c1=S -38%
COc1ccc(C(=O)NCC2(c3ccc(OC)c(OC)c3)CCCC2)cc1OC -44.3%
Cc1ccc(NC(=O)CSc2ccccc2NC(=O)c2ccccc2)cc1Cl -32.4%
Cc1ccc(S(=O)(=O)Nc2ccc3c(c2)C(=O)N([C@H](C)CO)C[C@H](C)[C@@H](CN(C)C(=O)Nc2ccc(C(F)(F)F)cc2)O3)cc1 -49.4%
COc1ccc(-n2ncc3c(NCc4ccccn4)ncnc32)cc1 -30.7%
CCN1CCCc2cc(CN(CCN3CCOCC3)C(=O)Nc3ccc(C)c(C)c3)ccc21 -47.7%

Activity change, active:
COc1cc2c(cc1OC)CN(C(=O)c1cc(C3CC3)nn1-c1ccccc1)CC2 -55.3%
CCc1ccc2oc(-c3ccc(OC)cc3)cc(=Nc3cccc(C(=O)O)c3)c2c1 -66.2%
CC(C)c1ccc(-c2cc(C(=O)N3CCOCC3)c3cc(Br)ccc3n2)cc1 -72.7%
CCC(C)N(C(=O)CSc1nc(C)nc2ccccc12)C1CCS(=O)(=O)C1 (stereo unspecified) -58.8%
CC(C(=O)NC1C=CS(=O)(=O)C1)N1C(=O)/C(=C/c2ccc(Cl)cc2)SC1=S (stereo unspecified) -58.9%
O=C1/C(=C\c2ccc(Cl)c(Cl)c2)CN(C(=O)CCN2CCOCC2)C/C1=C/c1ccc(Cl)c(Cl)c1 -101%
O=C(c1ccccc1)N1CCN(Cc2c[nH]c3ccccc23)CC1 -83.4%
CC(C)c1ccc(C(C)NCCS(=O)(=O)c2ccc(Br)cc2)cc1 (stereo unspecified) -98.5%
COc1cccc(Oc2ccc(N/C=C/C(=O)C(C)(C)C)cc2)c1 -64.7%
CCC(C)C(=O)N1c2ccccc2C(=C2SC(C(=O)OC)=C(C(=O)OC)S2)C(=S)C1(C)C (stereo unspecified) -59.1%
CCN1CCN(Cc2ccc(NC(=O)c3ccc(C)c(NC(=O)c4c[nH]c5cc(C(F)(F)F)ccc5c4=O)c3)cc2C(F)(F)F)CC1 -102% and -105%
COc1ccc(-c2nn3c(-c4ccccc4)nnc3s2)cc1OC -54.1%
COc1ccc(-c2nc3ccccc3nc2-c2ccccc2)cc1OC -62.1%
CC(=O)Nc1nc(-c2ccc3c(c2)OCO3)cs1 -52.6%
CCN(CC)CCCNc1nc2ccccc2c2nc(-c3ccncc3)nn12 -102%
CCn1nc(C)c(NC(=O)/C=C/c2ccc(OC)c(COc3ccc(Br)cc3)c2)c1C -50.3%
COc1cc(/C=C2/CCc3ccccc3C2=O)cc(OC)c1OC -99%

Activity change, inactive:
O=c1cc(CN2CCc3ccccc3C2)nc2sccn12 41%
CC(=O)C1=C(O)C(=O)N(c2ccc(Br)cn2)C1c1cccc([N+](=O)[O-])c1 (stereo unspecified) -9.62%
Cc1ccc(OCC(=O)NNC(=O)CCc2ccccc2)c(Br)c1 -16.1%
COc1ccccc1N(C)S(=O)(=O)c1ccc(Cl)c(C(=O)N2CCC2)c1 16.6%
O=C(Nc1cccc(Cl)c1)c1cccc(N2C(=O)C3CC=CCC3C2=O)c1 (stereo unspecified) -7.48%
Cc1ccc(C(=O)N/N=C(/CC(=O)c2cccs2)C(F)(F)F)cc1 16.4%
CC(C)Cn1c(SCC(=O)O)nnc1-c1cccc(S(=O)(=O)N2CCOCC2)c1 0%
O=[N+]([O-])c1ccc(N2CCN(S(=O)(=O)c3ccc(Cl)cc3)CC2)cc1NCC1CCCO1 (stereo unspecified) -2.25%
CN1CCN(c2nc3c(c(=O)[nH]c(=O)n3C)n2CCCSc2nnnn2-c2ccccc2)CC1 6.11%
COc1ccc(NC(=O)c2nc[nH]c2C(=O)N(C)Cc2ccccc2)cc1 -9.94%
COC(=O)CCN(Cc1cc(OC)ccc1OC)S(=O)(=O)c1ccccc1Br 0%
Cc1cc(N2CCN(C(C(=O)NC3CCCC3)c3ccco3)CC2)c2ccccc2n1 (stereo unspecified) -13.9%
CCOC(=O)C1CCCN(C(=O)c2cc3c(C)nc4ccccc4c3o2)C1 (stereo unspecified) 0%
CN(C)/C=C/C(=O)c1ccc(Br)cc1 -29.7%
COc1ccccc1Oc1ccc(Oc2ccccc2OC)cc1 -4.67%
CC(=O)Nc1ccc(NC(=O)C(C)Sc2n[nH]c(-c3ccc(C)cc3)n2)cc1 (stereo unspecified) 29.4%
Cn1nnnc1SCC(=O)NC(=O)Cc1ccccc1 40.6%
Nc1cc2c3ccccc3ccc2c2ccccc12 -4.78%
O=[N+]([O-])c1ccccc1CNCCO 13%
Cc1c(/C=C(\C#N)C(=O)NCc2ccccc2)cc(C#N)n1C -7.85%
CC(N=c1ccccn1C(=O)Nc1cccc(C(F)(F)F)c1)c1ccco1 (stereo unspecified) -6.85%
COc1ccc(N2C(=O)C3CC=C(Cl)CC3C2=O)cc1 (stereo unspecified) 14.1%
Cc1ccc(OCc2nc(-c3ccc(-n4cccc4)cc3)no2)cc1C -0.878%
Cn1c(O)c(N=Nc2nc(-c3ccccc3)cs2)c2ccccc21 -10.9%
